Experiments:
[1] = target: T1, recombinant HINT1 protein (mouse, UniProt P70349 1-126); assay: pull-down; HINT1 protomer 200 nM with GST fusion protein 100 nM in 50 mM Tris-HCl pH 7.4, 2.5 mM CaCl2, 0.2% CHAPS, 30 min RT; captured on glutathione Sepharose 4B; Western blot; conditions: both partners purified
T1 construct: HINT1, coding region of NM_008248, amplified from mouse brain RNA; also called PKCI/HINT1; source: E. coli BL21 (KRX), purified (GSTrap FF; when necessary cleaved with ProTEV and electroeluted)
T1 sequence (looked up): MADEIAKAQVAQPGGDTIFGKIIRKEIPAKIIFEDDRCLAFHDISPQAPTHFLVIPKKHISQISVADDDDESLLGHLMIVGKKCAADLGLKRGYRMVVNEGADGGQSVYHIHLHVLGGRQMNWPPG

recombinant σ1R = target: T2, recombinant σ1R (murine, UniProt O55242 1-223); assay: pull-down; bait (GST-NR1 C0-C1-C2 or GST-MOR) covalently attached to NHS-activated Sepharose; σ1R 100 nM in 50 mM Tris-HCl pH 7.4, 0.2% CHAPS, 30 min RT; CaCl2 0.25, 0.75 or 2.5 mM; parallel samples with neurosteroids (30 uM) or synthetic σ1R ligands; Western blot; conditions: both partners purified
T2 construct: murine full-length (1-223) σ1R, GenBank AF004927; Used as prey; also called sigma 1 receptor; source: E. coli BL21 (KRX), purified (GSTrap FF; when necessary cleaved with ProTEV and electroeluted)

- binding result [1]: binds
- binding result (recombinant σ1R): binds
B1: GST-NR1 C0-C1-C2 (domain or fragment)
chain: not shown
notes: C-terminal region of the glutamate receptor NMDAR1 (NM_008169), […], from mouse brain RNA; also called agarose-NR1 C0-C1-C2; source: E. coli BL21 (KRX), purified (GSTrap FF); not shown: GST, N-terminal, kept

Reference: paper PMC4742118, “The ON:OFF switch, σ1R-HINT1 protein, controls GPCR-NMDA receptor cross-regulation: Implications in neurological disorders” (Oncotarget, 2015)
